# Test results: the supplement of paper PMC8728848
# This is one part of the list.
# B1: OrysaEULS2 (Oryza sativa) (protein)
# chain: MVYCRANPNYAMTARNGAVVLAPANPKDEYQHWIKDMRWSTSIKDEEGYPAFALVNKATGQAIKHSLGQSHPVRLVPYNPEVMDESVLWTESRDVGNGFRCIRMVNNIYLNFDAFHGDKYHGGVRDGTDIVLWKWCEGDNQRWKIQPYYILEQKLISEEDLNSAVDHHHHHH
# Tests used:
# Test in all cases: glycan array binding signal (z-score within array); higher = stronger binding
# Conditions in all cases: glycan notation: IUPAC condensed, linker removed
# [1] = biological target: Fuc(a1-2)[Gal(a1-3)]Gal(b1-3)GlcNAc(b1-2)Man(a1-3)[Fuc(a1-2)[Gal(a1-3)]Gal(b1-3)GlcNAc(b1-2)Man(a1-6)]Man(b1-4)GlcNAc(b1-4)[Fuc(a1-6)]GlcNAc
# In short: (§1)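 The Consortium for Functional Glycomics database supplied 3228 glycan arrays, of which those lacking an available protein sequence were dropped. The binding signal, a within-array Z-score, was averaged across arrays of the same protein sequence and across linkers. Negative scores can be read as non-binding.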
# [2] = biological target: Fuc(a1-2)[Gal(a1-3)]Gal(b1-3)GlcNAc(b1-3)GalNAc
# In short: as §1
# [3] = biological target: Fuc(a1-2)[Gal(a1-3)]Gal(b1-3)GlcNAc(b1-6)GalNAc
# In short: as §1
# [4] = biological target: Fuc(a1-2)[Gal(a1-3)]Gal(b1-4)Glc
# In short: as §1
# [5] = biological target: Fuc(a1-2)[Gal(a1-3)]Gal(b1-4)GlcNAc
# In short: as §1
# [6] = biological target: Fuc(a1-2)[Gal(a1-3)]Gal(b1-4)GlcNAc(b1-2)Man
# In short: as §1
# [7] = biological target: Fuc(a1-2)[Gal(a1-3)]Gal(b1-4)GlcNAc(b1-2)Man(a1-3)[Fuc(a1-2)[Gal(a1-3)]Gal(b1-4)GlcNAc(b1-2)Man(a1-6)]Man(b1-4)GlcNAc(b1-4)GlcNAc
# In short: as §1
# [8] = biological target: Fuc(a1-2)[Gal(a1-3)]Gal(b1-4)GlcNAc(b1-2)Man(a1-3)[Fuc(a1-2)[Gal(a1-3)]Gal(b1-4)GlcNAc(b1-2)Man(a1-6)]Man(b1-4)GlcNAc(b1-4)[Fuc(a1-6)]GlcNAc
# In short: as §1
# [9] = biological target: Fuc(a1-2)[Gal(a1-3)]Gal(b1-4)GlcNAc(b1-3)GalNAc
# In short: as §1
# [10] = biological target: Fuc(a1-2)[Gal(a1-3)]Gal(b1-4)GlcNAc(b1-3)[Fuc(a1-2)[Gal(a1-3)]Gal(b1-4)GlcNAc(b1-6)]GalNAc
# In short: as §1
# [11] = biological target: Fuc(a1-2)[Gal(a1-3)]Gal(b1-4)GlcNAc(b1-6)GalNAc
# In short: as §1
# [12] = biological target: Fuc(a1-2)[Gal(a1-3)]Gal(b1-4)[Fuc(a1-3)]Glc
# In short: as §1
# [13] = biological target: Fuc(a1-2)[Gal(a1-3)]Gal(b1-4)[Fuc(a1-3)]GlcNAc
# In short: as §1
# [14] = biological target: Fuc(a1-2)[Gal(a1-3)]Gal(b1-4)[Fuc(a1-3)]GlcNAc(b1-3)GalNAc
# In short: as §1
# [15] = biological target: Fuc(a1-2)[Gal(a1-4)]Gal(b1-4)GlcNAc
# In short: as §1
# [16] = biological target: Fuc(a1-2)[GalNAc(a1-3)]Gal
# In short: as §1
# [17] = biological target: Fuc(a1-2)[GalNAc(a1-3)]Gal(b1-3)GalNAc(a1-3)[Fuc(a1-2)]Gal(b1-4)GlcNAc
# In short: as §1
# [18] = biological target: Fuc(a1-2)[GalNAc(a1-3)]Gal(b1-3)GalNAc(b1-3)Gal(a1-4)Gal(b1-4)Glc
# In short: as §1
# [19] = biological target: Fuc(a1-2)[GalNAc(a1-3)]Gal(b1-3)GlcNAc
# In short: as §1
# [20] = biological target: Fuc(a1-2)[GalNAc(a1-3)]Gal(b1-3)GlcNAc(b1-2)Man(a1-3)[Fuc(a1-2)[GalNAc(a1-3)]Gal(b1-3)GlcNAc(b1-2)Man(a1-6)]Man(b1-4)GlcNAc(b1-4)GlcNAc
# In short: as §1
# [21] = biological target: Fuc(a1-2)[GalNAc(a1-3)]Gal(b1-3)GlcNAc(b1-2)Man(a1-3)[Fuc(a1-2)[GalNAc(a1-3)]Gal(b1-3)GlcNAc(b1-2)Man(a1-6)]Man(b1-4)GlcNAc(b1-4)[Fuc(a1-6)]GlcNAc
# In short: as §1
# [22] = biological target: Fuc(a1-2)[GalNAc(a1-3)]Gal(b1-3)GlcNAc(b1-3)GalNAc
# In short: as §1
# [23] = biological target: Fuc(a1-2)[GalNAc(a1-3)]Gal(b1-3)GlcNAc(b1-6)GalNAc
# In short: as §1
# [24] = biological target: Fuc(a1-2)[GalNAc(a1-3)]Gal(b1-4)Glc
# In short: as §1
# [25] = biological target: Fuc(a1-2)[GalNAc(a1-3)]Gal(b1-4)GlcNAc
# In short: as §1
# [26] = biological target: Fuc(a1-2)[GalNAc(a1-3)]Gal(b1-4)GlcNAc(b1-2)Man
# In short: as §1
# [27] = biological target: Fuc(a1-2)[GalNAc(a1-3)]Gal(b1-4)GlcNAc(b1-2)Man(a1-3)[Fuc(a1-2)[GalNAc(a1-3)]Gal(b1-4)GlcNAc(b1-2)Man(a1-6)]Man(b1-4)GlcNAc(b1-4)GlcNAc
# In short: as §1
# [28] = biological target: Fuc(a1-2)[GalNAc(a1-3)]Gal(b1-4)GlcNAc(b1-2)Man(a1-3)[Fuc(a1-2)[GalNAc(a1-3)]Gal(b1-4)GlcNAc(b1-2)Man(a1-6)]Man(b1-4)GlcNAc(b1-4)[Fuc(a1-6)]GlcNAc
# In short: as §1
# [29] = biological target: Fuc(a1-2)[GalNAc(a1-3)]Gal(b1-4)GlcNAc(b1-3)Gal(b1-4)GlcNAc
# In short: as §1
# [30] = biological target: Fuc(a1-2)[GalNAc(a1-3)]Gal(b1-4)GlcNAc(b1-3)Gal(b1-4)GlcNAc(b1-3)Gal(b1-4)GlcNAc
# In short: as §1
# [31] = biological target: Fuc(a1-2)[GalNAc(a1-3)]Gal(b1-4)GlcNAc(b1-3)GalNAc
# In short: as §1
# [32] = biological target: Fuc(a1-2)[GalNAc(a1-3)]Gal(b1-4)GlcNAc(b1-3)[Fuc(a1-2)[GalNAc(a1-3)]Gal(b1-4)GlcNAc(b1-6)]GalNAc
# In short: as §1
# [33] = biological target: Fuc(a1-2)[GalNAc(a1-3)]Gal(b1-4)GlcNAc(b1-6)GalNAc
# In short: as §1
# [34] = biological target: Fuc(a1-2)[GalNAc(a1-3)]Gal(b1-4)[Fuc(a1-3)]GlcNAc
# In short: as §1
# [35] = biological target: Fuc(a1-2)[GalNAc(a1-3)]Gal(b1-4)[Fuc(a1-3)]GlcNAc(b1-3)GalNAc
# In short: as §1
# [36] = biological target: Fuc(a1-2)[GalNAc(a1-4)]Gal(b1-4)GlcNAc
# In short: as §1
# [37] = biological target: Fuc(a1-2)[GalNAc(b1-3)]Gal
# In short: as §1
# [38] = biological target: Fuc(a1-3)GlcNAc
# In short: as §1
# [39] = biological target: Fuc(a1-3)[Gal(b1-4)]Glc6S
# In short: as §1
# [40] = biological target: Fuc(a1-3)[Gal(b1-4)]GlcNAc
# In short: as §1
# [41] = biological target: Fuc(a1-3)[Gal(b1-4)]GlcNAc(b1-2)Man
# In short: as §1
# [42] = biological target: Fuc(a1-3)[Gal(b1-4)]GlcNAc(b1-2)Man(a1-3)[Fuc(a1-3)[Gal(b1-4)]GlcNAc(b1-2)Man(a1-6)]Man(b1-4)GlcNAc(b1-4)GlcNAc
# In short: as §1
# [43] = biological target: Fuc(a1-3)[Gal(b1-4)]GlcNAc(b1-2)Man(a1-3)[Fuc(a1-3)[Gal(b1-4)]GlcNAc(b1-2)Man(a1-6)]Man(b1-4)GlcNAc(b1-4)[Fuc(a1-6)]GlcNAc
# In short: as §1
# [44] = biological target: Fuc(a1-3)[Gal(b1-4)]GlcNAc(b1-3)Gal(b1-3)[Fuc(a1-4)]GlcNAc
# In short: as §1
# [45] = biological target: Fuc(a1-3)[Gal(b1-4)]GlcNAc(b1-3)Gal(b1-4)[Fuc(a1-3)]GlcNAc
# In short: as §1
# [46] = biological target: Fuc(a1-3)[Gal(b1-4)]GlcNAc(b1-3)Gal(b1-4)[Fuc(a1-3)]GlcNAc(b1-3)Gal(b1-4)[Fuc(a1-3)]GlcNAc
# In short: as §1
# [47] = biological target: Fuc(a1-3)[Gal(b1-4)]GlcNAc(b1-3)GalNAc
# In short: as §1
# [48] = biological target: Fuc(a1-3)[Gal(b1-4)]GlcNAc(b1-4)Gal(b1-4)[Fuc(a1-3)]GlcNAc
# In short: as §1
# [49] = biological target: Fuc(a1-3)[Gal(b1-4)]GlcNAc(b1-4)Gal(b1-4)[Fuc(a1-3)]GlcNAc(b1-4)Gal(b1-4)[Fuc(a1-3)]GlcNAc
# In short: as §1
# [50] = biological target: Fuc(a1-3)[Gal(b1-4)]GlcNAc(b1-6)GalNAc
# In short: as §1
# [51] = biological target: Fuc(a1-3)[Gal(b1-4)]GlcNAc(b1-6)[Gal(b1-3)GlcNAc(b1-3)]Gal(b1-4)Glc
# In short: as §1
# [52] = biological target: Fuc(a1-3)[Gal(b1-4)]GlcNAc(b1-6)[Neu5Ac(a2-3)Gal(b1-3)]GalNAc
# In short: as §1
# [53] = biological target: Fuc(a1-3)[Gal(b1-4)]GlcNAc6S
# In short: as §1
# [54] = biological target: Fuc(a1-3)[Gal3S(b1-4)]Glc
# In short: as §1
# [55] = biological target: Fuc(a1-3)[Gal3S(b1-4)]GlcNAc
# In short: as §1
# [56] = biological target: Fuc(a1-3)[Gal3S(b1-4)]GlcNAc6S
# In short: as §1
# [57] = biological target: Fuc(a1-3)[GalNAc(b1-4)]GlcNAc
# In short: as §1
# [58] = biological target: Fuc(a1-3)[GalNAc(b1-4)]GlcNAc6S
# In short: as §1
# [59] = biological target: Fuc(a1-3)[GalNAc3S(b1-4)]GlcNAc
# In short: as §1
# [60] = biological target: Fuc(a1-4)GlcNAc
# In short: as §1
binder,measurement,setting,value
B1,glycan array binding signal (z-score),[1],-0.193
same,glycan array binding signal (z-score),[2],-0.18
same,glycan array binding signal (z-score),[3],-0.168
same,glycan array binding signal (z-score),[4],-0.183
same,glycan array binding signal (z-score),[5],-0.167
same,glycan array binding signal (z-score),[6],-0.257
same,glycan array binding signal (z-score),[7],0.767
same,glycan array binding signal (z-score),[8],0.012
same,glycan array binding signal (z-score),[9],-0.198
same,glycan array binding signal (z-score),[10],-0.24
same,glycan array binding signal (z-score),[11],-0.21
same,glycan array binding signal (z-score),[12],-0.208
same,glycan array binding signal (z-score),[13],-0.195
same,glycan array binding signal (z-score),[14],-0.208
same,glycan array binding signal (z-score),[15],-0.183
same,glycan array binding signal (z-score),[16],-0.184
same,glycan array binding signal (z-score),[17],-0.156
same,glycan array binding signal (z-score),[18],-0.245
same,glycan array binding signal (z-score),[19],-0.189
same,glycan array binding signal (z-score),[20],-0.127
same,glycan array binding signal (z-score),[21],-0.207
same,glycan array binding signal (z-score),[22],-0.178
same,glycan array binding signal (z-score),[23],-0.158
same,glycan array binding signal (z-score),[24],-0.205
same,glycan array binding signal (z-score),[25],-0.2
same,glycan array binding signal (z-score),[26],-0.261
same,glycan array binding signal (z-score),[27],0.423
same,glycan array binding signal (z-score),[28],-0.189
same,glycan array binding signal (z-score),[29],-0.187
same,glycan array binding signal (z-score),[30],-0.175
same,glycan array binding signal (z-score),[31],-0.187
same,glycan array binding signal (z-score),[32],-0.194
same,glycan array binding signal (z-score),[33],-0.284
same,glycan array binding signal (z-score),[34],-0.197
same,glycan array binding signal (z-score),[35],-0.07
same,glycan array binding signal (z-score),[36],-0.189
same,glycan array binding signal (z-score),[37],-0.184
same,glycan array binding signal (z-score),[38],-0.154
same,glycan array binding signal (z-score),[39],-0.177
same,glycan array binding signal (z-score),[40],-0.192
same,glycan array binding signal (z-score),[41],-0.192
same,glycan array binding signal (z-score),[42],0.251
same,glycan array binding signal (z-score),[43],-0.176
same,glycan array binding signal (z-score),[44],-0.21
same,glycan array binding signal (z-score),[45],-0.27
same,glycan array binding signal (z-score),[46],-0.24
same,glycan array binding signal (z-score),[47],-0.194
same,glycan array binding signal (z-score),[48],-0.174
same,glycan array binding signal (z-score),[49],-0.163
same,glycan array binding signal (z-score),[50],-0.16
same,glycan array binding signal (z-score),[51],-0.183
same,glycan array binding signal (z-score),[52],-0.16
same,glycan array binding signal (z-score),[53],-0.167
same,glycan array binding signal (z-score),[54],-0.277
same,glycan array binding signal (z-score),[55],-0.194
same,glycan array binding signal (z-score),[56],-0.186
same,glycan array binding signal (z-score),[57],-0.162
same,glycan array binding signal (z-score),[58],-0.208
same,glycan array binding signal (z-score),[59],-0.163
same,glycan array binding signal (z-score),[60],-0.208
